Structures are written as SMILES. In all, about 13,000 compounds were measured (“IFI”: median about 4, highest 2% from about 17 on). The list shows a part of the results.

The nature of this assay: GSK_TCMDC: Inhibition Frequency Index (IFI). The number of non-kinase HTS assays where a compound showed > 50 % inhibition, expressed as a percentage of the number of such assays in which the compound was tested (-0 is zero). It is filed as functional.
Turning to `c1cc(CN2CCCCC2)cc(-c2cccc(-c3nc4ccccc4[nH]3)c2)c1`, the IFI came to 2.82%.

As for `Cc1ccc2nc(-c3ccc(C(=O)NC4CCN(Cc5ccccc5)CC4)cc3)[nH]c2c1C`, the IFI amounted to 2.16%. With `COc1cc(NCCCNCc2cn(Cc3cc(Br)cc(Br)c3)c3ccccc23)nc2ccccc12`, the IFI amounted to 17.4%. Compound `COc1ccc2nccc([C@@H](O)CN3CCC(NCc4cc5ccccc5[nH]4)CC3)c2c1` gave an IFI of 1.47%. The compound `O=C(Nc1nc(-c2ccccn2)cc2ccccc12)c1cccc(Cl)c1` yielded an IFI of 5.41%.

The compound `COc1ccc(Nc2nc(NCc3cccc(NS(C)(=O)=O)c3)cc(-c3ccc(OC)cc3)n2)cc1` returned an IFI of 1.56%. For the compound `COC(=O)c1cccc(CNCc2cccc(-c3ccc(-c4nc5ccccc5[nH]4)s3)c2)c1`, the IFI is 1.9%.

`Cc1nc(N)nc(N)c1-c1ccc(Br)c(Br)c1` came in with an IFI of 4.62%. `COc1cc(NCC(O)CNc2cc(Cl)nc3ccccc23)nc2ccccc12` (stereo not drawn) returned an IFI of 1.48%. `COc1ccc2nccc(N3CCC(NCCNCc4ccc5c(n4)NC(=O)CS5)C3)c2n1` (stereo not drawn): the IFI was determined as 3.52%. Compound `CNC(=O)Cc1ccc(C(=O)Nc2cccc(-c3cccc(-c4nc5cc(C(F)(F)F)ccc5[nH]4)c3)c2)cc1` returned an IFI of 5.31%.

The compound `Fc1ccc2[nH]c(-c3ccc(-c4ccc(CNCCN5CCNCC5)cc4)cc3)nc2c1` came in with an IFI of 11.9%. `Cn1nccc1C(=O)NCCNCc1cccc(-c2cccc(-c3nc4cc(F)ccc4[nH]3)c2)c1` had an IFI of 6.86%.

Turning to `c1cc(CNCC2CCCO2)cc(-c2cccc(-c3nc4ccccc4[nH]3)c2)c1` (stereo not drawn), the IFI was determined as 3%. To `O=C(NCc1ccccc1)OC1CNCCC1c1ccc(C(O)Cc2ccccc2)cc1` (stereo not drawn) belongs 1.54%; to `O=C(O[C@H]1CN[C@H](C#Cc2cc3c(Nc4ccc(OCc5cccc(F)c5)c(Cl)c4)ncnc3s2)C1)N1CCCC1`, 2.14%. With `COc1ccc(-c2ccc3c(-c4ccc(F)cc4)cnc(N)c3c2)cn1` the figure was 1.4%; with `CCCC[C@@H](C(=O)NCCc1ccc(Cl)cc1)N1C(=O)CCC1C(=O)Nc1ccc(Cl)c(Cl)c1` (stereo partly drawn), 1.46%. For `c1ccc(-c2[nH]c3ccccc3c2CN2CCC(N3CCCCC3)CC2)nc1`, the IFI was determined as 2.44%. `CN(C)CCOc1ccnc2ccc(NC(=O)Cc3ccc(-c4ccncc4)c4ccccc34)cc12` registered an IFI of 3.79%. `O=C(Nc1cccc(C(F)(F)F)c1)c1cccc(S(=O)(=O)NCC2CCCN(Cc3ccccc3)C2)c1` (stereo not drawn) had an IFI of 4.82%. Compound `NC(=O)c1sc(-n2cnc3ccc(C(=O)NCCN4CCOCC4)cc32)cc1OCc1ccccc1C(F)(F)F` came in with an IFI of 2.63%.

For `Cc1cc(=NN=Cc2ccc(Cl)cc2)c2ccc(F)cc2[nH]1`, the IFI turned out to be 0.76%. As for `CCc1c(C(=O)NC2CCC(N3CCC(c4ccccc4C)CC3)CC2)[nH]c2ccc(Br)cc12` (stereo not drawn), the IFI turned out to be 15.8%. For the compound `COc1cc(F)c2ncc(Cl)c(CCN3CCC(NCc4ccc5c(n4)NC(=O)CO5)CC3)c2c1`, the IFI is 4.41%. Compound `CC[C@H]1CN(C/C=C/c2ccc(OC)cc2)CC[C@H]1CCCc1ccnc2ccc(O)cc12` gave an IFI of 4.58%. `CC(C)(C)c1cc(Cl)cc(C(=O)Nc2cc([N+](=O)[O-])ccc2Cl)c1O` displayed an IFI of 13.7%. As to `CCCc1cc(NCC)nc(Nc2ccc(F)cc2)n1`, the IFI worked out at 3.03%. To `Cc1cc(N[C@@H](Cc2ccccc2)C(=O)NCc2cccc(F)c2)nc(NCCCOC(C)C)n1` belongs 18.2%. `CC(CN1CCN(C)CC1)C(=O)Nc1ccc(-c2csc(-c3nc4ccccc4[nH]3)c2)cc1` (stereo not drawn) showed an IFI of 1.79%.

In the case of `CC(C)(C)c1ccc(NC(=O)c2cccc(CN3CCCN(Cc4ccc(F)cc4)CC3)c2)cc1`, the IFI amounted to 10%. For `C=C(C)Cn1cc(C2CCN(CCCCNC(=O)c3sc(-c4ccc(Cl)cc4Cl)nc3CO)CC2)c2ccccc21`, the IFI worked out at 9.01%. With `CC(C)Cn1c(N)cc(=O)n(C)c1=O` the figure was -0%.

Turning to `Cc1cc(OCCCN2CCC(NS(=O)(=O)c3cccc(Br)c3)CC2)c2ccccc2n1`, the IFI was 2.59%. For `CCn1c(-c2nonc2N)nc2c(-c3cccc(Cl)c3)ncc(OCCCNCc3cnc(C)nc3N)c21`, the IFI turned out to be 7.62%. With `Cc1cc(N[C@@H](Cc2ccccc2)C(=O)NCCCOC(C)C)nc(NCCc2ccc(F)cc2)n1`, the IFI came out at 2.44%. Take `Brc1cc(CNCCCNc2nc3ccccc3[nH]2)sc1Br`: the IFI turned out to be 5.84%. With `COc1ccc(Nc2nccc(NCC(O)c3ccc(C(F)(F)F)cc3)n2)cc1` (stereo not drawn) the figure was 8.65%. With `Cn1cccc1C(=O)C(=O)Nc1ccc(-c2ccc(-c3nc4cc(F)ccc4[nH]3)cc2)cc1`, the IFI was determined as 5.26%. In the case of `COc1cc2c(cc1OC)C(C(=O)Nc1ccc(C(F)(F)F)cc1)C(c1cccs1)N(C)C2=O` (stereo not drawn), the IFI amounted to 4.26%. Take `O=S(=O)(NCCN1CCCC1)c1ccc(-c2ccc(CNCc3ccsc3)cc2)s1`: the IFI came to 9.26%. For the compound `O=C(Nc1cccc(OCc2ccccc2)c1)c1ccc(CN2CCC(Cc3ccccc3)CC2)cc1`, the IFI worked out at 5.26%.

Consider `CCNc1cc(C)nc(Nc2ccc(NC(=O)c3ccc(OC)c(OC)c3)cc2)n1`, for which the IFI worked out at 3.92%. To `CC[C@@]1(O)C(=O)OCc2c1cc1n(c2=O)Cc2c-1nc1cc3c(cc1c2CN1CCN(C)CC1)OCCO3` belongs 5.19%; to `N#Cc1c(-c2ccccc2)cn2c1[nH]c(=O)c1ccccc12`, 1.56%. The compound `CCCC(=O)c1cnc2c(I)cccc2c1Nc1ccccc1C` had an IFI of 2.27%. To `CC(C)CNC(=O)c1cncc(-c2ccc(CN(C)C3CCN(C)CC3)cc2)c1` belongs 0%.

As to `CCc1ccc(O)c(-c2cc(C(=O)Nc3cccnc3)[nH]n2)c1`, the IFI was 1.45%.

As for `COc1ccc2nccc(N3CCC(SCCNCc4ccc5c(n4)NC(=O)CS5)C3)c2n1` (stereo not drawn), the IFI amounted to 12.1%. `COc1cc2c(cc1N1CC(C)NC(C)C1)N(C(=O)c1ccc(-c3ccc(-c4ncc[nH]4)cc3C)cc1)CC2` (stereo not drawn) had an IFI of 1.45%. Take `O=C(Nc1ccc(Br)cc1)N(CCN1CCOCC1)CC(O)COCc1ccc(F)cc1` (stereo not drawn): the IFI is 1.42%. `CCCCN1CCN(CCCCNc2c3ccccc3nc3ccccc23)CC1` displayed an IFI of 5.67%. To `Cc1ccc(C2CCN(CCCCNC(=O)c3ccc(NC(=O)c4ccc(Cl)cc4)cc3)CC2)c(OCC2CC2)c1` belongs 8.33%. With `CCc1cn2c3c(cc(C(=O)N[C@@H](Cc4ccccc4)[C@H](O)CNCc4cccc(C)c4)cc13)N(C)S(=O)(=O)CC2` the figure was 5.8%; with `Nc1ccc(-c2nc3cc(Oc4ccc5[nH]c(-c6ccc(N)cc6)nc5c4)ccc3[nH]2)cc1`, 5.52%. The compound `Cc1ccc(Nc2nc(C)cc(NC3CC3)n2)cc1` had an IFI of 4.62%. Regarding `OC1CCCN(Cc2cccc(-c3ccc(-c4nc5ccccc5[nH]4)cc3)c2)C1` (stereo not drawn), the IFI was -0%.

In turn, `COc1ccc(Nc2nc(C)cc(NCc3ccc(-c4c(C)noc4C)cc3)n2)cc1` showed an IFI of 10%.

The values above are taken from ChEMBL document CHEMBL1157539, “Thousands of chemical starting points for antimalarial lead identification” (Nature, 2010).
